Laboratory results: PubChem BioAssay AID686978 (National Center for Advancing Translational Sciences (NCATS), 2013)
Screen size: about 420,000 compounds; about 64,000 (15%) were called active. Inconclusive means that the source gave no clear call. Such entries were picked first, then a sample of the others. The call rests on the fitted dose curve; in most records, active means well fitted inhibition curve with a large enough effect; inconclusive means small, poorly fitted or top-dose-only effect; inactive means flat fitted curve, though single readings scatter. No potency is given beside an inconclusive call; the fits are too rough.

Experiment: qHTS for Inhibitors of human tyrosyl-DNA phosphodiesterase 1 (TDP1): qHTS in cells in absence of CPT; further: nearly all actives have a fitted effect of over 55% in size
Details: DT40 Tdp1-/- hTDP1 cells, no CPT, ATP luminescence, 48 h; activity change, negative = growth inhibition: at 46.2 µM (top of the series) unless noted
Summary of the method: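 DT40 Tdp1-/-;hTDP1 cells, no CPT (DMSO vehicle only), 400 cells/well; compounds pin-transferred; ≥48 hr, 37 °C; CellTiter-Glo 30 min RT dark, luminescence read.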
On the % scale 0 is the no-effect control and ±100 the full control effect; potency means the concentration at half of the fitted maximal effect; tags describe the fitted curve by direction and shape.

| Structure (SMILES) | Potency | activity change, negative = growth inhibition |
| --- | --- | --- |
| NC(N)=NS(=O)(=O)c1ccc(NC(=S)NC(=O)Cc2ccc(Cl)cc2)cc1 | inactive | – |
| COc1ccc2[nH]cc(CCNc3ccnc(-c4ccc(N(C)C)cc4)n3)c2c1 | active: 0.92 µM | – |
| CC(C)C[C@@H](CN1CCCC1CN1C(=S)NC[C@@H]1Cc1ccc(O)cc1)N1C[C@H](Cc2ccccc2)N(CC2CCCCC2)C1=S (stereo partly drawn) | inconclusive [inhibitor, single point] | – |
| COc1cc(C)c(NC(=O)Cc2ccsc2)cc1OC | inactive | – |
| Cc1ccc(SCC2(O)CCN(C(=O)c3ccc(Cl)cc3)CC2)cc1 | inconclusive [inhibitor, single point] | – |
| Cc1cccc(C)c1NC(=O)C(NC=O)c1ccc(N(C)C)cc1 (stereo not drawn) | inconclusive [inhibitor, single point] | – |
| Cc1ccc(S(=O)(=O)CCC(=O)Nc2nnc(-c3ccco3)o2)cc1 | inconclusive [inhibitor, single point] | – |
| CCc1nn(CC(=O)Nc2ccc(N(CC)CC)cc2C)c(=O)c2cc3sccc3n12 | inconclusive [inhibitor, single point] | – |
| CC(C)Sc1ncc(Cl)c(C(=O)N(Cc2ccc(N(C)C)cc2)C2CCS(=O)(=O)C2)n1 (stereo not drawn) | inconclusive [inhibitor, single point] | – |
| Cc1cc(C)c2c(N)c(C(=O)NN)sc2n1 | – | inconclusive: -33.4% [inhibitor] |
| CC1=CC2=NC(=O)/C(=C\c3cn(C)c4ccccc34)C(=N)N2O1 | inactive | – |
| N#Cc1ccc(C(=O)Nc2ccc3c(c2)N(C2CCCC2)C(=O)c2ccccc2S3)cc1 | active: 18.4 µM | – |
| CCN1CCN(c2oc(-c3ccccc3)nc2S(=O)(=O)c2ccc(C)cc2)CC1 | inconclusive [inhibitor, single point] | – |
| COc1ccc(CN(C)C(=O)c2ccc3ccccc3n2)cc1F | inactive | – |
| S=C(NCc1ccco1)NCC(c1ccco1)N1CCCCC1 (stereo not drawn) | inconclusive [inhibitor, single point] | – |
| CC(Sc1ccc(S(=O)(=O)N2CCN(C)CC2)cn1)C(=O)Nc1cccc(Cl)c1Cl (stereo not drawn) | inconclusive [inhibitor, single point] | – |
| CCNS(=O)(=O)c1ccc(NC(=O)Nc2cccc(C(F)(F)F)c2)cc1 | inconclusive [inhibitor, single point] | – |
| CN(Cc1ccccc1)C(=O)c1cccc(NC(=O)Cc2ccc(NC(=O)C3CCN(C(=O)c4ccccc4)CC3)cc2)c1 | inactive | – |
| CCC(=O)Nc1ccc2c(c1)C(=O)N(C1CCCCC1)C2=O | inconclusive [inhibitor, partial curve] | – |
| C/C=C(/C)C(=O)OC1C(OC(C)=O)[C@@]2(CO)C(O)C[C@@]3(C)C(=CCC4[C@@]5(C)CCC(OC6OC(C(=O)O)[C@@H](O[C@@H]7OC(CO)C(O)C(O)C7O)C(O)[C@H]6O[C@@H]6OC(CO)C(O)C(O)C6O)[C@](C)(CO)C5CC[C@@]43C)C2CC1(C)C (stereo partly drawn) | inconclusive [inhibitor, single point] | – |
| CSc1ccc(-c2cc3c(c4c2ccn4C)C2CCC3O2)cc1 (stereo not drawn) | inconclusive [inhibitor, single point] | – |
| CCn1ccc2c(OCC(=O)NCc3ccc(F)cc3)cccc2c1=O | inconclusive [inhibitor, partial curve] | – |

| Structure (SMILES) | Potency | activity change, negative = growth inhibition |
| --- | --- | --- |
| CCOC(=O)c1c(NC(=O)c2ccc(Br)o2)sc(C)c1CC | inconclusive [inhibitor, single point] | – |
| COc1ccc(Br)cc1CN(C)C(=O)c1ccc2c(c1)NC(=O)C(C)S2 (stereo not drawn) | inactive | – |
| Cc1ccc(C(=O)Nc2ccccc2C(=O)N2CCOCC2)cc1[N+](=O)[O-] | inactive | – |
| Cc1nn(-c2ccc(N3CCCC3)nn2)c(C)c1CCC(=O)Nc1ccc(F)c(Cl)c1 | active: 25.9 µM | – |
| CCN(CC)S(=O)(=O)c1ccc2c(c1)N(CC(=O)NCCc1ccc(S(N)(=O)=O)cc1)C(=O)CO2 | inactive | – |
| CC(C)(C)c1ccc(S(=O)(=O)N2CCc3nc4ccccc4c(C(=O)O)c3C2)cc1 | inactive | – |
| Cc1nn(Cc2ccc(Cl)cc2)c(C)c1NC(=O)CSc1n[nH]c(C)c1[N+](=O)[O-] | active: 20.6 µM | – |
| O=[N+]([O-])c1cccc(Cl)c1NCCNS(=O)(=O)c1ccc(Cl)cc1 | – | inconclusive: -35.4% [inhibitor] |
| Cc1cccc(C(=O)NCCN2CCN(c3ccccc3)CC2)c1 | inactive | – |
| COc1ccc(COCC(O)CN2CCN(S(=O)(=O)c3c(F)cccc3F)CC2)cc1OC (stereo not drawn) | inconclusive [inhibitor, single point] | – |
| N#C/C(=N\Nc1cccc2ccccc12)c1nnc2n1CCCCC2 | active: 32.6 µM | – |
| CCOc1ccc2nc(N(CCN(C)C)C(=O)c3ccc4c(c3)CCCC4)sc2c1 | inconclusive [inhibitor, single point] | – |
| C[C@@H]1CN([C@@H](C)CO)C(=O)CCCn2nncc2CO[C@H]1CN(C)Cc1ccc2cccnc2c1 | inactive | – |
| COC(=O)C1CCN(C2CN(Cc3ccc([N+](=O)[O-])cc3)S(=O)(=O)C2)CC1 (stereo not drawn) | inconclusive [inhibitor, single point] | – |
| COc1ccccc1C(C[N+](=O)[O-])c1c[nH]c2ccccc12 (stereo not drawn) | inconclusive [inhibitor, single point] | – |
| COc1cc(Cl)ccc1NC(=O)COc1ccccc1C(=O)N1CCN(c2ccc(O)cc2)CC1 | active: 23.1 µM | – |
| CC(=O)NC(c1ccccc1)c1cc(Cl)c2cccnc2c1O (stereo not drawn) | inconclusive [inhibitor, single point] | – |
| CCOc1ccc(C2C(C(=O)Nc3ccccc3)=C(C)Nc3nc(SCc4cc(C)ccc4C)nn32)cc1 (stereo not drawn) | inactive | – |
| Cc1cc(C)c2nc(N(Cc3cccnc3)C(=O)c3cccs3)sc2c1 | inconclusive [inhibitor, single point] | – |
| COc1cccc(C(C(=O)NC2CCCC2)N2CCN(c3cc(C)ccc3C)CC2)c1OC (stereo not drawn) | active: 20.6 µM | – |
| COc1ccc(CC(=O)N2CCN(c3ccccn3)CC2)cc1OC | inactive | – |
